Sequences with one replicate were seen in a single cluster, so their values are uncertain.

The subject of this data set is ATP. Put plainly: switch fluorescence ratio, 500 uM ATP over buffer (Cy3 cluster intensity, sum of 5 cycles each) (fold (ratio)); higher = stronger signal-on switching upon ATP binding; sequences stand for … in TCGTCGGCAGCGTCAGATGTGTATAAGAGACAGTTTTTTTTTTTTTTTTTTTTTTTTT…TC. To be noted: aptamer strand: ATP DNA aptamer (quencher-CACCTGGGGGAGTATTGCGGAGGAAGG + anchor), 100 nM annealed; ATP concentration: 500 uM; one replicate. Put shortly: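 Cy3-labelled switching-strand clusters on a modified Illumina MiSeq flow-cell were annealed to 100 nM quencher-labelled ATP aptamer, imaged in selection buffer, then imaged after 15 min with 500 uM ATP at 22 °C. Five buffer/ATP cycles ran, with NaOH stripping and re-annealing between them. The fluorescence ratio is summed target-cycle over summed buffer-cycle Cy3 intensity per cluster, averaged per switch-domain sequence. Clusters outside 100-1000 RFU were excluded.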
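Note: ATP exposure 15 min at 22 °C before imaging.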

Consider GTCGTCTTG, for which the switch fluorescence ratio is 0.988.
The figure for CTTCTTTCCT is 1.04; for TGGGCTACAA it is 1.05; for CCTGTTTAGC it is 1.02.
The figure for ACAGAAGATC is 1.03.
To CCGAGAATGT belongs 1.15; to TCTGCCTTGA, 1.15; to CAGCATGTGC, 1.07.
Take ATGAGTTTAA: the switch fluorescence ratio was determined as 0.979.
As to GCCATTTTTA, the switch fluorescence ratio is 0.983.
The figure for CGGAAGACCT is 1.06; for GCGACAAGA it is 1.44.
The figure for AATACAGCGT is 0.975.
The figure for AAGCGGACCA is 1.02; for CTGCTATATG it is 1.14.
For GATCTTTACT, the switch fluorescence ratio stood at 1.09.
The figure for GTGGCAATTA is 1.17.
The figure for GTGATTCCTA is 0.988; for TGCATATGCG it is 0.98; for TGAATTTGA it is 0.964.
TGCGCGCTCA: the switch fluorescence ratio stood at 1.
The figure for AGCGCACCAT is 1.05; for AGACTGTGGG it is 0.969; for TAGCGTTGCC it is 0.962.
Take CTGAAAAGGT: the switch fluorescence ratio amounted to 0.98.
Turning to GTGGGTGAAA, the switch fluorescence ratio stood at 0.979.
Regarding TGATAGGAGG, the switch fluorescence ratio was found to be 0.997.
The figure for GTTCGGAGCA is 1.7; for GCTTTGACA it is 0.97; for ATATGGGCCG it is 1.02.
Regarding CACCACCGAC, the switch fluorescence ratio was 1.46.
The figure for ACGAGGTGTC is 0.972; for TTCAAGACGA it is 1.17; for CGCAAATGTG it is 1.31.
The figure for GATCGGTTTG is 0.982; for CAGAAAGAAT it is 0.989.
To TCCTGGTTG belongs 1.01; to TTCCACTCGT, 0.979; to GGGTAAGTAG, 1.03.
With AGTCGGACCT, the switch fluorescence ratio stood at 1.25.
Take TGCCTATGG: the switch fluorescence ratio was determined as 1.01.
The figure for CGGCCGGTGT is 1.03; for CTGCTTCGTA it is 1.01.
The figure for GGATCCCTGC is 1.02; for CGCTCAGGGC it is 1.02; for GAACTCTGTG it is 0.97.
As to TTGTAAGAAG, the switch fluorescence ratio stood at 1.01.
In the case of GCCACCCGCG, the switch fluorescence ratio was found to be 1.2.
Regarding TGGAGTATCT, the switch fluorescence ratio came to 1.05.
With CAATTCCATT, the switch fluorescence ratio amounted to 0.97.
To CGGTTAGGCA belongs 0.986.
The figure for GCGGATGGTC is 1.01; for TGATCTAATA it is 1.01; for GGAACGGAGC it is 1.01.
ATAACTTCC: the switch fluorescence ratio came out at 3.43.
ACCGTTTTCC: the switch fluorescence ratio is 1.22.
Regarding CACTTAACGG, the switch fluorescence ratio was 1.4.
To CAATCAATTA belongs 1.03.
As for TGTTGTCCCC, the switch fluorescence ratio is 1.08.
Regarding TGCTTGGCGG, the switch fluorescence ratio worked out at 0.996.
As to GGTCCATGTC, the switch fluorescence ratio turned out to be 0.926.
With CAATCGCTCG, the switch fluorescence ratio amounted to 0.969.
To AATCAGCAGC belongs 1.15.
To AAAAAAATTA belongs 0.92; to CTGTTATACA, 0.997.
The figure for TGTCATCTTT is 0.991; for ACAGGTGGAT it is 1.46; for TGGTGAAGTG it is 0.993.
Consider CGTTGCTGCA, for which the switch fluorescence ratio stood at 0.997.
As to AATGCTCTGG, the switch fluorescence ratio amounted to 1.
The figure for GCAACTAGGA is 1.08; for CCTCGAAGAT it is 1.79.
Consider GGTCGACAG, for which the switch fluorescence ratio amounted to 0.952.
To GCTGGGGTCC belongs 1.01.
The figure for CTAATAGG is 1.02; for AAAACCTGCT it is 1.12.
The figure for GTAGAGCATG is 1.02; for ATATTGAATT it is 0.961.
As to CCTGCTTTCG, the switch fluorescence ratio came out at 1.07.
Take AAGTTAAACC: the switch fluorescence ratio amounted to 1.08.
The figure for AAACTCAAAA is 0.963; for ATGAAACTGG it is 0.986; for TAGGGTACAG it is 1.02.
The figure for TTGGAGGCTA is 1.01; for ACATAGGAAT it is 1.04.
Take TATGCAAATT: the switch fluorescence ratio worked out at 1.02.
The figure for CCTAGGGATG is 0.978.
The figure for GGCATCTCGC is 1.01; for CTGCACGTTA it is 1.22; for CATGGACGAT it is 1.04.
For the sequence ATTTCGCTGA, the switch fluorescence ratio is 1.03.
To TCGTAGTACG belongs 0.983; to GGGGCTCTCA, 1.02.
To AGGAATAGCA belongs 1.04; to CAGTCGTTTG, 1; to ATCGGCTGGG, 1.02.
With GAAGCTATGT, the switch fluorescence ratio is 1.05.
The figure for ATTAGCTGTT is 0.97; for CCTGCTGCGT it is 1.36.
TTAAGACACT: the switch fluorescence ratio came to 1.01.
The figure for TGTGCTTCGT is 1.04.
To TAACCGATCT belongs 1.07; to ATGAGAAGGG, 1.03.
The figure for AGCCTGAGCT is 0.99.
On to GGCTGCCGGT, for which the switch fluorescence ratio came to 0.974.
For the sequence AACAATTACT, the switch fluorescence ratio was 1.24.
The figure for TGGGCTCTAG is 0.979.
Consider CGCGGTGGC, for which the switch fluorescence ratio is 1.06.
The figure for AGTGTGGGAG is 0.973; for CCCTAGTAAG it is 1.04; for CACTTTATGT it is 1.05.
The figure for ATCGGTTATC is 0.984; for TCGAAACCAA it is 1.01; for CCTGTAATTA it is 1.12.
The figure for ACGATCGTAT is 0.988; for AGTTGGGTT it is 0.99; for TTTCACGACG it is 1.23.
As to AGTGGAGGTT, the switch fluorescence ratio turned out to be 0.973.
To ATAATGAGGG belongs 0.986; to TGATTTTGAA, 1.03.

(Values after the supplement of paper PMC10126150.)
